Viability of KB3-1 and Nalm-6 cells after 48 h of drug alone (CellTiter-Glo), 11 doses over about 4.5 log units. % of DMSO wells, lower = more cell loss; AC50 from the fitted curve, lower = more potent. No active / inactive call. Nalm-6 was screened in two runs. AC50 is listed only for well-fitted inhibitory curves. KB3-1 is a HeLa-derived carcinoma line, Nalm-6 a B-cell precursor leukaemia line.
Experiments:
Nalm-6 [1] = experiment: log AC50 of viability decrease (48 h) (log10 M); higher = less potent
Method: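 Eleven-dose screen of the NCATS MIPE 3 library on cells without co-treatment; CellTiter-Glo after 48 h. AC50 from the curve fit; only inhibitory curves of the better fit classes are listed.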

Nalm-6 [2] = experiment: viability (% of DMSO control); higher = more viable cells
Method: (§1)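 Eleven-dose screen of the NCATS MIPE 3 library on cells without co-treatment; CellTiter-Glo after 48 h, as % of DMSO wells.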

KB3-1 = experiment: as above
Method: as §1

Row | SMILES | log AC50 of viability decrease (Nalm-6 [1]; run: 1) | log AC50 of viability decrease (Nalm-6 [1]; run: 2) | viability (Nalm-6 [2]; run: 1, 0.00078 µM) [%] | viability (Nalm-6 [2]; run: 1, 0.00234 µM) [%] | viability (Nalm-6 [2]; run: 1, 0.00702 µM) [%] | viability (Nalm-6 [2]; run: 1, 0.0211 µM) [%] | viability (Nalm-6 [2]; run: 1, 0.0632 µM) [%] | viability (Nalm-6 [2]; run: 1, 0.19 µM) [%] | viability (Nalm-6 [2]; run: 1, 0.569 µM) [%] | viability (Nalm-6 [2]; run: 1, 1.71 µM) [%] | viability (Nalm-6 [2]; run: 1, 5.12 µM) [%] | viability (Nalm-6 [2]; run: 1, 15.4 µM) [%] | viability (Nalm-6 [2]; run: 1, 46.1 µM) [%] | viability (Nalm-6 [2]; run: 2, 0.00078 µM) [%] | viability (Nalm-6 [2]; run: 2, 0.00234 µM) [%] | viability (Nalm-6 [2]; run: 2, 0.00702 µM) [%] | viability (Nalm-6 [2]; run: 2, 0.0211 µM) [%] | viability (Nalm-6 [2]; run: 2, 0.0632 µM) [%] | viability (Nalm-6 [2]; run: 2, 0.19 µM) [%] | viability (Nalm-6 [2]; run: 2, 0.569 µM) [%] | viability (Nalm-6 [2]; run: 2, 1.71 µM) [%] | viability (Nalm-6 [2]; run: 2, 5.12 µM) [%] | viability (Nalm-6 [2]; run: 2, 15.4 µM) [%] | viability (Nalm-6 [2]; run: 2, 46.1 µM) [%] | viability (KB3-1; 0.00078 µM) [%] | viability (KB3-1; 0.00234 µM) [%] | viability (KB3-1; 0.00702 µM) [%] | viability (KB3-1; 0.0211 µM) [%] | viability (KB3-1; 0.0632 µM) [%] | viability (KB3-1; 0.19 µM) [%] | viability (KB3-1; 0.569 µM) [%] | viability (KB3-1; 1.71 µM) [%] | viability (KB3-1; 5.12 µM) [%] | viability (KB3-1; 15.4 µM) [%] | viability (KB3-1; 46.1 µM) [%]
1 | N#Cc1ccc(NC(=O)Nc2ccccc2Br)c2nn[nH]c12 | -4.63 | -4.58 | 117 | 113 | 114 | 110 | 117 | 119 | 117 | 113 | 108 | 101 | 44.6 | 104 | 109 | 97.7 | 108 | 110 | 107 | 108 | 102 | 97.3 | 79.7 | 19.7 | 108 | 111 | 102 | 105 | 108 | 110 | 80.5 | 105 | 104 | 104 | 76.3
2 | c1ccc(-c2nn3c(c2-c2ccnc4cc(OCCN5CCOCC5)ccc24)CCC3)nc1 |  | -4.58 | 96.4 | 105 | 103 | 101 | 109 | 110 | 124 | 126 | 136 | 117 | 27.6 | 102 | 108 | 104 | 104 | 113 | 111 | 114 | 112 | 119 | 95.9 | 8.85 | 105 | 107 | 104 | 110 | 104 | 112 | 111 | 111 | 114 | 105 | 97.3
3 | CC(=O)C\1=C(/C)C2=CN=C(NC3=CC=C(C=N3)N4CCNCC4)N=C2N(C5CCCC5)C1=O | -4.93 | -4.78 | 87 | 91.6 | 90.9 | 91.9 | 80.8 | 66.5 | 64.2 | 56.8 | 47.4 | 48.2 | 1.49 | 110 | 107 | 97.6 | 103 | 95 | 75.6 | 73.1 | 65.6 | 64.6 | 61 | 0.969 | 106 | 98.2 | 97.1 | 103 | 99.3 | 103 | 100 | 97.4 | 97.4 | 90.2 | 3.82
4 | CC(C)(C)C(=O)Oc1ccc2c(c1)nc(NC(=O)c1cccc([N+](=O)[O-])c1)n2CCCO | -4.63 |  | 106 | 104 | 101 | 93.7 | 102 | 104 | 97.5 | 91.5 | 88.2 | 86.6 | 29.5 | 98.9 | 102 | 101 | 96.1 | 90.1 | 94.9 | 86.3 | 94.5 | 89 | 85.7 | 15.4 | 103 | 100 | 98.4 | 95.5 | 101 | 104 | 94.1 | 99.5 | 99.5 | 98.6 | 94.4
5 | Cc1n[nH]c(C)c1Cc1sc2c(c1C(=O)N1C[C@H](O)CO1)c(=O)n(C)c(=O)n2CC(C)C |  | -8.73 | 73.3 | 71.3 | 59.3 | 62.4 | 66.9 | 55.7 | 59.3 | 59.9 | 59.3 | 60.1 | 58 | 82.7 | 57 | 53.7 | 41.1 | 42.6 | 42.6 | 43.3 | 41.4 | 44.8 | 40.7 | 40 | 105 | 93.2 | 104 | 110 | 103 | 104 | 107 | 106 | 110 | 110 | 106
6 | CC(C)C[C@H](NC(=O)c1cc2ccccc2s1)C(=O)N1CCN(C(=O)[C@H](CO)NS(=O)(=O)c2ccc(Cl)cc2Cl)CC1 | -4.68 |  | 98.4 | 105 | 97.1 | 98.5 | 97.1 | 95.3 | 84.4 | 84.5 | 68.6 | 72.7 | 0.135 | 99.9 | 97.1 | 99.7 | 105 | 101 | 103 | 102 | 102 | 101 | 104 | 2.83 | 102 | 99 | 101 | 101 | 97.5 | 97.5 | 97.9 | 97.3 | 102 | 97.4 | 19.8
7 | Cc1[nH]c(/C=C2\C(=O)Nc3ccc(S(=O)(=O)Cc4c(Cl)cccc4Cl)cc32)c(C)c1C(=O)C1CCCN1CN1CCCC1 (stereo not drawn) | -4.68 | -4.63 | 117 | 127 | 129 | 123 | 115 | 114 | 120 | 111 | 102 | 79.5 | -1.65 | 109 | 108 | 106 | 109 | 111 | 106 | 111 | 92.4 | 91.1 | 88 | -0.684 | 104 | 105 | 105 | 103 | 104 | 102 | 102 | 101 | 98.3 | 101 | -1.18
8 | Cc1ccccc1C(C(=O)NC1CCCC1)N(C(=O)Cn1cnc2ccccc21)c1cccc(F)c1 (stereo not drawn) |  | -4.63 | 72.3 | 105 | 101 | 110 | 106 | 120 | 119 | 114 | 105 | 91.7 | 64 | 97.8 | 101 | 99 | 106 | 102 | 109 | 107 | 94 | 102 | 88.9 | 16.4 | 97.1 | 96.8 | 101 | 103 | 102 | 107 | 108 | 105 | 107 | 98.1 | 45.4
9 | Cc1cccc(Nc2nc(N[C@@H]3CCCC[C@@H]3N)ncc2C(N)=O)c1 | -4.83 | -4.73 | 125 | 120 | 116 | 115 | 107 | 97.4 | 81.2 | 78 | 67.1 | 56.5 | 0.803 | 108 | 106 | 108 | 111 | 101 | 93.7 | 77.4 | 74.4 | 71.2 | 64.8 | 0.83 | 106 | 101 | 101 | 105 | 104 | 104 | 103 | 95.6 | 96.9 | 92.3 | 2.93
10 | Cc1cc2c(cc1C1(c3ccc(C(=O)O)cn3)CC1)C(C)(C)CCC2(C)C | -5.43 |  | 102 | 100 | 94.8 | 91.6 | 82 | 71.2 | 58.6 | 60.2 | 50.3 | 53.3 | 3.5 | 92.2 | 109 | 98.3 | 99.7 | 99.5 | 97.1 | 94.1 | 99 | 86.2 | 92.6 | 17 | 98.7 | 105 | 104 | 103 | 102 | 99.7 | 102 | 105 | 100 | 104 | 95.2
11 | Cc1c[nH]c(-c2cnc(NCCNc3ccc(C#N)cn3)nc2-c2ccc(Cl)cc2Cl)n1 | -5.83 | -6.03 | 98.7 | 104 | 115 | 106 | 126 | 124 | 106 | 49.3 | 13.7 | 12.6 | 1.71 | 108 | 108 | 108 | 111 | 116 | 108 | 87.5 | 23 | 3.58 | 3.32 | 2.15 | 99 | 101 | 102 | 98.9 | 105 | 109 | 111 | 107 | 102 | 98.3 | 14.5
12 | CCc1cncnc1N1CCN(Cc2nc3cc(C(F)(F)F)ccc3[nH]2)CC1 | -5.93 | -5.13 | 111 | 121 | 119 | 122 | 114 | 108 | 90.7 | 81.4 | 74.8 | 61.8 | 56.4 | 115 | 114 | 108 | 109 | 107 | 105 | 99.6 | 88.7 | 83.8 | 68.2 | 55.4 | 95.7 | 97.1 | 101 | 104 | 101 | 99.9 | 98.1 | 91 | 85.3 | 74.7 | 72.5
13 | CCc1cc(Nc2nccc(-c3c(-c4ccc(OC)c(C(=O)Nc5c(F)cccc5F)c4)nc4ccccn34)n2)c(OC)cc1N1CCC(N2CCN([S+](C)(=O)[O-])CC2)CC1 | -5.58 | -5.43 | 101 | 107 | 110 | 116 | 110 | 118 | 103 | 91 | 67.6 | 66.2 | 51.6 | 99.7 | 111 | 98.6 | 100 | 101 | 105 | 106 | 106 | 69.4 | 69.9 | 54.6 | 102 | 103 | 99.9 | 104 | 108 | 99.5 | 93 | 96.4 | 91.4 | 89.5 | 86
14 | CCCCOCCOc1nc(-c2ccc(C(=O)O)c(F)c2)sc1C | -6.93 |  | 94.4 | 106 | 102 | 81.9 | 65.6 | 37.7 | 5.48 | -0.623 | -1.27 | -1.29 | -1.33 | 75.5 | 101 | 105 | 102 | 108 | 109 | 102 | 109 | 109 | 108 | 89.8 | 95.4 | 97.5 | 97.5 | 97.3 | 97.3 | 96.4 | 95.8 | 98.5 | 96.9 | 91.9 | 61.4
